These results are taken from the supplement of paper PMC4604168 (melanoma cell lines).

Common to all, as to experiment: cell count relative to DMSO control; melanoma cells; higher = more viable cells
Settings in all cases: library dose: low library concentration; 72 h

Experiment [1] deals with WM115.
Experiment [2] deals with WM1716.
Experiment [3] has as its system WM1745.
The subject of experiment [4] is WM3526.
Experiment [5] concerns WM3619.
Experiment [6] has as its system WM451Lu.

This is one part of the list. Repeats are few or missing, and single values can be far off.
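Also: cell number obtained by counting DAPI-stained nuclei in high-throughput microscope images with image analysis software, screen run in 1,536-well plates.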

For the molecule `O=S(=O)(c1ccccc1)N(CC(F)(F)F)c1ccc(C(O)(C(F)(F)F)C(F)(F)F)cc1` + C/C(O)=C(\C#N)C(=O)Nc1cc(Br)ccc1Br [LFM-A13] (first compound 1.4 µM, partner dose 2 µM), the cell count in experiment [1] stood at 100%; in experiment [2] it was 79.7%; in experiment [3], 90.1%; in experiment [4], 80.8%; in experiment [5], 90.4%; in experiment [6] it was 90.4%.
Turning to `C[C@]1(O)C[C@@H](c2nc(-c3ccc4ccc(-c5ccccc5)nc4c3)c3c(N)nccn32)C1` + C[As](C)SC[C@H](NC(=O)CC[C@H](N)C(=O)O)C(=O)NCC(=O)O [Darinaparsin] (first compound 0.4 µM, partner dose 0.4 µM), the cell count in experiment [1] is 102%; in experiment [2] it was 105%; in experiment [3] it was 82%; in experiment [4], 71.8%; in experiment [5] it was 106%; in experiment [6] it was 93.1%.
In the case of `CN(c1ncccc1CNc1nc(Nc2ccc3c(c2)CC(=O)N3)ncc1C(F)(F)F)S(C)(=O)=O` + N.N.[Cl][Pt][Cl] [cisplatin] (first compound 0.08 µM, partner dose 1.6 µM), the cell count came to 76.7% in experiment [1]; 96.5% in experiment [2]; 87.4% in experiment [3]; 97.5% in experiment [4]; 96.9% in experiment [5]; 79.1% in experiment [6].
In the case of `CC(=O)O[C@@]12CO[C@@H]1C[C@H](O)[C@@]1(C)C(=O)[C@H](O)C3=C(C)[C@@H](OC(=O)[C@H](O)[C@@H](NC(=O)OC(C)(C)C)c4ccccc4)C[C@@](O)([C@@H](OC(=O)c4ccccc4)[C@H]21)C3(C)C` [Docetaxel] + C[As](C)SC[C@H](NC(=O)CC[C@H](N)C(=O)O)C(=O)NCC(=O)O [Darinaparsin] (first compound 0.0001 µM, partner dose 0.4 µM), the cell count in experiment [1] worked out at 55.2%; in experiment [2] it was 41.1%; in experiment [3], 51.5%; in experiment [4], 51.9%; in experiment [5], 57.2%; in experiment [6], 53.2%.
As to `O=C(/C=C/c1cccnc1)NCCCCC1CCN(C(=O)c2ccccc2)CC1` + C[As](C)SC[C@H](NC(=O)CC[C@H](N)C(=O)O)C(=O)NCC(=O)O [Darinaparsin] (first compound 0.01 µM, partner dose 0.4 µM), the cell count in experiment [1] is 91.2%; in experiment [2], 93.6%; in experiment [3] it was 115%; in experiment [4], 99.5%; in experiment [5] it was 123%; in experiment [6], 98.2%.
In the case of `Cc1cc(SCc2sc(-c3ccc(C(F)(F)F)c(F)c3)nc2C)ccc1OCC(=O)O` + Cc1cc([N+](=O)[O-])ccc1NS(=O)(=O)c1cc(Cl)ccc1Cl [FH535] (first compound 2 µM, partner dose 1 µM), the cell count came to 86.9% in experiment [1]; 105% in experiment [2]; 84.5% in experiment [3]; 109% in experiment [4]; 101% in experiment [5]; 112% in experiment [6].
As to `C/C(O)=C(\C#N)C(=O)Nc1cc(Br)ccc1Br` + O=c1cc(-c2cccc3c2Sc2ccccc2S3)oc(N2CCOCC2)c1 [KU55933] (first compound 2 µM, partner dose 1 µM), the cell count stood at 105% in experiment [1]; 98.6% in experiment [2]; 83.8% in experiment [3]; 85.4% in experiment [4]; 123% in experiment [5]; 104% in experiment [6].
In the case of `CCCCCCCCc1ccc(CCC(N)(CO)CO)cc1` [fingolimod] + C[As](C)SC[C@H](NC(=O)CC[C@H](N)C(=O)O)C(=O)NCC(=O)O [Darinaparsin] (first compound 2 µM, partner dose 0.4 µM), the cell count is 89.8% in experiment [1]; 74.7% in experiment [2]; 64.8% in experiment [3]; 84.2% in experiment [4]; 52.9% in experiment [5]; 108% in experiment [6].
With `O=C(Nc1cc(C(F)(F)F)cc(C(F)(F)F)c1)c1cc(Cl)ccc1O` + N.N.[Cl][Pt][Cl] [cisplatin] (first compound 0.016 µM, partner dose 1.6 µM), the cell count in experiment [1] was found to be 101%; in experiment [2], 97.6%; in experiment [3], 98.6%; in experiment [4], 93.1%; in experiment [5], 118%; in experiment [6] it was 108%.
For `Cc1cn(-c2cc(NC(=O)c3ccc(C)c(Nc4nccc(-c5cccnc5)n4)c3)cc(C(F)(F)F)c2)cn1` [nilotinib] + C[C@]12O[C@H](C[C@]1(O)CO)n1c3ccccc3c3c4c(c5c6ccccc6n2c5c31)CNC4=O [Lestaurtinib] (first compound 0.2 µM, partner dose 0.004 µM), the cell count was 104% in experiment [1]; 108% in experiment [2]; 78.7% in experiment [3]; 114% in experiment [4]; 98.8% in experiment [5]; 114% in experiment [6].
`Cc1cc(SCc2sc(-c3ccc(C(F)(F)F)c(F)c3)nc2C)ccc1OCC(=O)O` + O=c1cc(-c2cccc3c2Sc2ccccc2S3)oc(N2CCOCC2)c1 [KU55933] (first compound 2 µM, partner dose 1 µM): the cell count in experiment [1] was determined as 98.5%; in experiment [2], 110%; in experiment [3] it was 88.6%; in experiment [4], 85.8%; in experiment [5], 92.8%; in experiment [6], 121%.
Consider `CO[C@@H]1[C@H](N(C)C(=O)c2ccccc2)C[C@H]2O[C@]1(C)n1c3ccccc3c3c4c(c5c6ccccc6n2c5c31)C(=O)NC4` [Midostaurin] + O=C(Oc1ccc([N+](=O)[O-])cc1)N1CCC(C(O)(c2ccc3c(c2)OCO3)c2ccc3c(c2)OCO3)CC1 [JZL184] (first compound 0.08 µM, partner dose 1 µM), for which the cell count turned out to be 102% in experiment [1]; 99% in experiment [2]; 103% in experiment [3]; 112% in experiment [4]; 81.6% in experiment [5]; 96.5% in experiment [6].
Consider `NC1(c2ccc(-c3nc4ccn5c(=O)[nH]nc5c4cc3-c3ccccc3)cc2)CCC1` + O=C(Oc1ccc([N+](=O)[O-])cc1)N1CCC(C(O)(c2ccc3c(c2)OCO3)c2ccc3c(c2)OCO3)CC1 [JZL184] (first compound 0.4 µM, partner dose 1 µM), for which the cell count in experiment [1] was determined as 81.3%; in experiment [2], 83.4%; in experiment [3], 98.1%; in experiment [4], 81%; in experiment [5] it was 89.5%; in experiment [6], 84.7%.
